From the supplement of paper PMC12217912
The list shows a part of the results. The full chains were built here from the parent and the listed change. Values near 0.05 are background.

B1: TEV protease; numbered along this chain (parent)
chain: MGESLFKGPRDYNPISSSICHLTNESDGHTTSLYGIGFGPFIITNKHLFRRNNGTLVVQSLHGVFKVKDTTTLQQHLVDGRDMIIIRMPKDFPPFPQKLKFREPQREERICLVTTNFQTKSMSSMVSDTSCTFPSGDGIFWKHWIQTKDGQCGSPLVSTRDGFIVGIHSASNFTNTNNYFTSVPKNFMELLTNQEAQQWVSGWRLNADSVLWGGHKVFMVKPEEPFQPVKEATQL

Variants of: B1
Test: raw area under fraction-flipped curve 0-4 h after induction (AUC4h, not background-subtracted), DNA-recorder readout of cleavage of the substrate (dimensionless); higher = more cleavage of the substrate by the protease variant
Settings: temperature: 34 °C; time window: 0-4 h after rhamnose induction
Method: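 In vivo DNA recorder in E. coli TOP10(DE3) ΔrhaA at 34 °C. Each TEVp single-site mutant (parent TEVp 0) is paired with a single-site variant of the 7-mer TEVs (canonical ENLYFQ|S). The substrate sits between flexible linkers in a Bxb1-sfGFP-TEVs-SsrA fusion, so cleavage stabilises Bxb1 and speeds flipping of a recombination array, read by NGS. The value is the raw area under the fraction-flipped curve over 0-4 h after rhamnose induction (AUC4h), with ≥20 reads per time point. It is not background-subtracted; inactive controls average about 0.047.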
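Further: Bxb1 expression induced with 0.2% (w/v) L-rhamnose at OD600 near 0.5, cultures sampled hourly, flipped fraction per protease–substrate barcode pair counted by paired-end Illumina sequencing.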

Row | Variant | area with substrate ENAYFQS | area with substrate ENCYFQS | area with substrate ENDYFQS | area with substrate ENEYFQS | area with substrate ENFYFQS | area with substrate ENGYFQS | area with substrate ENHYFQS | area with substrate ENKYFQS | area with substrate ENNYFQS | area with substrate ENQYFQS | area with substrate ENRYFQS | area with substrate ENSYFQS | area with substrate ENTYFQS | area with substrate ENVYFQS | area with substrate ENYYFQS | area with substrate ENPYFQS | area with substrate ENWYFQS | area with substrate ENIYFQS | area with substrate ENMYFQS
1 | Q146T | 0.0547 | 0.0771 | 0.0711 | 0.0602 | 0.0354 | 0.0808 | 0.0575 | 0.0571 | 0.0545 | 0.0624 | 0.0599 | 0.0665 | 0.0533 | 0.0714 | 0.0542 | – | – | – | –
2 | Q146C | 0.0793 | – | 0.0595 | 0.0554 | 0.0514 | 0.0657 | 0.054 | 0.0558 | 0.057 | 0.0578 | 0.0624 | 0.0522 | 0.0716 | 0.0847 | 0.0456 | 0.065 | 0.0564 | – | –
3 | P134D | 0.0681 | 0.0575 | 0.065 | 0.0661 | 0.0534 | 0.0584 | – | 0.0696 | 0.0721 | 0.0622 | 0.0658 | 0.0639 | – | 0.0593 | 0.052 | 0.0593 | 0.0593 | 0.0726 | 0.0552
4 | S124V | 0.0698 | 0.0514 | 0.0721 | 0.054 | 0.0789 | 0.0627 | 0.0501 | 0.0714 | 0.0601 | 0.0628 | 0.0706 | 0.0652 | – | 0.051 | 0.0502 | 0.0572 | – | – | 0.0919
5 | S124R | 0.0565 | 0.0585 | 0.0564 | 0.0433 | 0.0664 | 0.0649 | 0.0511 | 0.0639 | – | 0.0626 | 0.0312 | – | 0.0944 | 0.0884 | 0.0558 | 0.0657 | – | 0.0994 | –
6 | S124P | 0.0384 | – | 0.0652 | 0.0674 | – | – | 0.0638 | – | 0.0604 | 0.0584 | 0.0613 | 0.0753 | 0.0611 | 0.072 | – | 0.0572 | – | – | –
7 | V126Y | 0.0553 | 0.0582 | 0.0695 | 0.0966 | 0.0608 | 0.0707 | – | 0.0637 | – | 0.0598 | 0.0801 | 0.0601 | 0.0709 | 0.075 | 0.0524 | – | 0.0555 | 0.122 | 0.0735
8 | V126A | 0.0581 | 0.126 | 0.0646 | 0.0609 | 0.0677 | 0.037 | 0.0718 | 0.058 | 0.054 | 0.0595 | – | 0.0674 | 0.0561 | 0.0781 | 0.069 | 0.0584 | 0.0513 | 0.146 | –
9 | I110D | 0.047 | 0.057 | 0.0489 | 0.0524 | 0.0425 | 0.0591 | 0.0653 | 0.0728 | 0.0772 | 0.0459 | 0.0581 | 0.0611 | 0.0766 | – | – | 0.052 | – | 0.0455 | 0.0389
10 | I110G | 0.0494 | 0.0527 | – | 0.0562 | – | 0.0518 | 0.0588 | – | 0.0653 | 0.0521 | – | 0.0557 | 0.0511 | 0.0524 | – | – | – | 0.0518 | –
11 | I110T | 0.0498 | 0.0578 | 0.0642 | – | – | 0.0566 | 0.0575 | – | 0.0638 | 0.0591 | 0.0501 | 0.0727 | – | 0.0532 | 0.0569 | 0.0613 | 0.0508 | 0.0766 | 0.0608
12 | D149Y | 0.0528 | 0.0697 | 0.0612 | 0.0591 | 0.0555 | – | 0.0542 | 0.0639 | 0.0514 | 0.0585 | 0.0521 | 0.0463 | 0.0469 | 0.0615 | 0.0703 | 0.0548 | 0.0488 | 0.0585 | –
13 | R109I | 0.0635 | 0.0604 | 0.0693 | 0.066 | 0.0546 | 0.0356 | 0.0745 | – | 0.0665 | 0.0557 | 0.0549 | 0.0594 | 0.0553 | 0.0764 | 0.0597 | 0.0627 | 0.0076 | 0.0842 | 0.0699
14 | R109W | 0.0696 | – | 0.0628 | 0.0578 | 0.0644 | 0.0625 | 0.0484 | 0.06 | 0.0584 | 0.0628 | – | 0.0584 | 0.0831 | 0.0593 | 0.0577 | 0.0707 | – | 0.161 | 0.0776
15 | R109G | 0.0614 | 0.0736 | 0.0594 | 0.0734 | 0.0616 | 0.0657 | 0.0501 | 0.0514 | 0.0797 | 0.0699 | – | 0.0775 | 0.0591 | 0.0731 | – | 0.0586 | 0.0513 | 0.0971 | 0.0805
16 | Q105R | 0.0552 | 0.0578 | 0.0572 | 0.056 | 0.0674 | 0.0719 | 0.0558 | 0.0605 | 0.0714 | 0.0676 | 0.0491 | 0.0617 | – | 0.0749 | 0.0596 | 0.0586 | 0.0481 | 0.106 | 0.0625
17 | S121M | 0.0571 | – | 0.0581 | 0.0567 | – | 0.0521 | 0.0599 | – | 0.0657 | 0.0632 | 0.064 | 0.0579 | – | 0.065 | – | 0.063 | 0.0514 | 0.0985 | 0.0891
18 | S121H | 0.0709 | 0.0643 | 0.0648 | 0.0645 | – | 0.0619 | 0.0606 | 0.0669 | 0.0355 | 0.0594 | 0.0521 | – | 0.0744 | 0.0479 | 0.0645 | – | 0.0601 | 0.123 | 0.0563
19 | S121W | 0.057 | 0.0654 | 0.0571 | 0.0581 | – | 0.0494 | 0.0558 | – | 0.0598 | 0.0526 | – | 0.0358 | 0.064 | 0.078 | 0.0536 | 0.043 | – | – | 0.0576
20 | S127G | 0.0653 | 0.0646 | 0.0605 | 0.0677 | 0.053 | 0.0576 | 0.0609 | 0.0495 | 0.0423 | 0.0669 | 0.0311 | 0.0616 | 0.0615 | 0.0664 | 0.0569 | 0.0733 | 0.0556 | – | –
21 | T132I | 0.0546 | – | 0.0627 | 0.067 | 0.0596 | 0.0592 | – | 0.0515 | 0.0611 | 0.051 | 0.0607 | 0.063 | – | – | – | 0.0633 | – | 0.0351 | –
22 | T132A | 0.0523 | 0.0698 | 0.0582 | 0.068 | – | – | 0.0561 | 0.0234 | 0.0581 | 0.0607 | 0.0615 | 0.061 | – | 0.0678 | 0.0566 | 0.0524 | – | 0.103 | 0.0758
23 | I145K | 0.0542 | 0.063 | 0.0622 | 0.0595 | 0.0448 | 0.0727 | 0.0606 | 0.0589 | 0.0578 | 0.0417 | 0.0431 | 0.055 | – | 0.0483 | 0.0768 | – | 0.0587 | – | 0.0625
